According to patent US11684652B2, “HMGB1 antagonist treatment of acute lung injury” (THE FEINSTEIN INSTITUTES FOR MEDICAL RESEARCH, priority 2019, dated 2023):

How the values were obtained:
[1] = system: influenza virus A/PR/8/34 (PR8); assay: lethal influenza infection model; type: in vivo; settings: K883 100 ug/mouse intraperitoneally for 5 consecutive days from two days after infection; vs vehicle
[2] = system: influenza virus A/PR/8/34 (PR8); settings: Shirey 2016, cited from earlier work

| Structure (SMILES) | clinical scores after PR8 infection [1] | clinical scores in survivors [2] | reduction of mortality ([2]; given daily for five days beginning two days after influenza infection) |
| --- | --- | --- | --- |
| NC(=O)N(CCC(=O)O)NC(=O)[C@H](CO)NC(=O)[C@H](CO)NC(=O)N(N)Cc1ccccc1 [K883] | lowered clinical scores |  |  |
| NC(=O)[C@H](CCC(=O)O)NC(=O)[C@H](CO)NC(=O)[C@H](CO)NC(=O)[C@@H](N)Cc1ccccc1 [P5779] |  | lowers clinical scores | approximately 9 fold |
